The text below walks through data of article PMC4336329 (PLoS ONE, 2015).

Screen size: about 310,000 compounds; about 14,000 (4.5%) showed an effect of 50% or more. Effects have a minus sign here. The list shows a part of the results.
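Note: peak tail current of the secondary pulse compared with the same well before compound.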

For this experiment, the target named is human ether-à-go-go-related gene (hERG) potassium channel (human, UniProt Q12809). The experiment in a line: primary screen, population patch clamp on CHO cells stably expressing hERG.
Chain of human ether-à-go-go-related gene (hERG) potassium channel (Q12809 whole entry, looked up): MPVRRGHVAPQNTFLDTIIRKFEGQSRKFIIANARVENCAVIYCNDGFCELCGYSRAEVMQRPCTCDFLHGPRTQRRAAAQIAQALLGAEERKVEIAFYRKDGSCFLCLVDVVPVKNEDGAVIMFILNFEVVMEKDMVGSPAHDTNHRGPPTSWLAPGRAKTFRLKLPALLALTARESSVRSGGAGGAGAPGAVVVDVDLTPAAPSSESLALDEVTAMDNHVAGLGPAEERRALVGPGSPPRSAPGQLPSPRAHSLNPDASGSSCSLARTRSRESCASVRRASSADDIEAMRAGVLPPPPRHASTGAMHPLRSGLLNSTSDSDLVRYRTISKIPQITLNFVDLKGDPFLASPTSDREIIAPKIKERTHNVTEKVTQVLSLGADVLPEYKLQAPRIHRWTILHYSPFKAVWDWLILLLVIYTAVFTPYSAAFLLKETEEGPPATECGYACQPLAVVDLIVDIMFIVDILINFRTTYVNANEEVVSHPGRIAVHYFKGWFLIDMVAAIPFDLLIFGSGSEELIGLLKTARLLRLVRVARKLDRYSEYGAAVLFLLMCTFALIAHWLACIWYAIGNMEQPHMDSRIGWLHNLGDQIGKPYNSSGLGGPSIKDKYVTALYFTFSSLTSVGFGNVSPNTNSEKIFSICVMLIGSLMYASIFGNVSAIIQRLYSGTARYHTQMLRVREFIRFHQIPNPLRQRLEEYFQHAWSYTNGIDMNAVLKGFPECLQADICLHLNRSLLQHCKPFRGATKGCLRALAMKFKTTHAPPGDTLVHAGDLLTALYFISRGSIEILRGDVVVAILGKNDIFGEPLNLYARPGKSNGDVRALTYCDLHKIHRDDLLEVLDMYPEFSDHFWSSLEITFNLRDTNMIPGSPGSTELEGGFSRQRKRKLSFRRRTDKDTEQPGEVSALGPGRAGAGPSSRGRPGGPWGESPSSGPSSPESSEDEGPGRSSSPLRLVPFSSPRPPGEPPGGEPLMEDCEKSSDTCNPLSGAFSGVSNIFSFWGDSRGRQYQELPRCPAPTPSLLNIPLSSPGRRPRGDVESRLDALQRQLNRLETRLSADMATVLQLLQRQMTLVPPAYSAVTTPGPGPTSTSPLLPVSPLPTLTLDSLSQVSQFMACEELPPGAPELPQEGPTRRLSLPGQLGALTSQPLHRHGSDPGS
For `Cc1ccccc1CN1CCN(Cc2ccccc2C(F)(F)F)CC1.O=C(O)C(=O)O`, the “hERG current change (%, negative = inhibition) at 10uM” value is 0.869%.
As to `CCc1[nH]c(=O)c(C#N)c2c1COC(C)(C)C2`, the “hERG current change (%, negative = inhibition) at 10uM” value was -6.05%.
For `OCCNc1nc(-c2ccccc2)c2ccccc2n1`, the “hERG current change (%, negative = inhibition) at 10uM” value is on record as -12.7%.
As for `Cc1ccc(CNC2=NCCCCC2)n1C`, the “hERG current change (%, negative = inhibition) at 10uM” value is on record as 5.25%.
On to `Cc1nc(N2CCN(c3ccccn3)CC2)c2c(C)c(C(=O)Nc3ccc(F)cc3)sc2n1`, for which the “hERG current change (%, negative = inhibition) at 10uM” value is on record as -76.4%.
Regarding `COC(=O)Nc1nc2c(C)cccc2s1`, the “hERG current change (%, negative = inhibition) at 10uM” value is recorded as -5.84%.
Next, `NC(=O)c1cc(S(=O)(=O)Nc2cccc(Cl)c2)cs1`: -61.2%; `Nc1cccc(S(=O)(=O)c2cccc(N)c2)c1`: -5.81%; `CCOC(=O)c1c(C)nc(C)c(C(=O)OCC)c1-c1cccc(N)c1`: 14.6%.
Next, `CC(=O)c1cccc(OCc2cc(C(=O)N3C[C@H]4CC[C@H]3C4)no2)c1`: 4.62%; `CN(C)C(CNS(=O)(=O)c1ccc2ccccc2c1)c1ccccc1.Cl` (stereo not shown): -8.93%.
Take `CC(=O)c1ccc(Oc2ncnc(N)c2[N+](=O)[O-])cc1`: the “hERG current change (%, negative = inhibition) at 10uM” value was 12.4%.
Turning to `O=C1NC(c2ccc(-c3ccccc3[N+](=O)[O-])o2)C(C(=O)c2ccc(Cl)cc2)C(O)(C(F)(F)F)N1` (stereo not shown), the “hERG current change (%, negative = inhibition) at 10uM” value was found to be 2.13%.
Take `COc1ccc(/C=C/C(=O)OCC(=O)N2CCCC2)c(OC)c1`: the “hERG current change (%, negative = inhibition) at 10uM” value is -3.65%.
In the case of `Cn1c2c(c(=O)n(C)c1=O)C1c3ccccc3OCC1C(C)(C)O2` (stereo not shown), the “hERG current change (%, negative = inhibition) at 10uM” value is listed as -4.89%.
In the case of `COc1ccc(OC(=O)COc2cc(C)ccc2C)cc1`, the “hERG current change (%, negative = inhibition) at 10uM” value was 10.1%.
The figure for `O=C(c1ccc(Cn2cc(Br)cn2)o1)N1N=C(C(F)F)CC1(O)C(F)F` (stereo not shown) is -11%.
In the case of `N#C/C(=C\c1c(N2CCCCC2)nc2ccccn2c1=O)S(=O)(=O)c1ccccc1`, the “hERG current change (%, negative = inhibition) at 10uM” value is -40.7%.
The figure for `Nc1cc(C(F)(F)F)ccc1Nc1ccccc1` is 19%; for `COc1cccc(N=Cc2c(O)c3ccccc3oc2=O)c1` it is 25%; for `COC(=O)c1ccccc1NC(=O)C1CCN(S(=O)(=O)c2cc(C)ccc2OC)CC1` it is -17.8%.
Take `Cc1cc(Cl)ccc1OCCCC(=O)NN`: the “hERG current change (%, negative = inhibition) at 10uM” value was determined as 13.8%.
Consider `COc1ccc(OC)c(Nc2nc(NCCC(C)C)nc(N)c2[N+](=O)[O-])c1`, for which the “hERG current change (%, negative = inhibition) at 10uM” value is 8.43%.
Next, `CCN(CC)c1ccc(C=C2C(=O)NC(=S)NC2=O)cc1`: 23.4%; `CC(=O)Nc1ccc(S(=O)(=O)Nc2ccc3c(c2)n(C)c(=O)n3C)c(C)c1`: 13%.
